Measurements reported in the supplement of paper PMC10300432.
Recombinant human monoclonal antibodies (heavy:light variable regions). ELISA EC50 on the named antigen, from 10 µg/ml down; IC50 against spike pseudovirus on HT1080-ACE2 cells, 48 h; lower = stronger. Calls: IC50 above 1,000 ng/ml = non-neutralizing; EC50 above 1,000 ng/ml = non-binder.

What was measured:
[1] = target: SARS-CoV-2 Omicron BA.1 spike pseudovirus; test: pseudovirus neutralization IC50; higher = weaker neutralization
Protocol: (§1)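 Single-round luciferase reporter pseudovirus mixed with antibody dilutions and put on HT1080-ACE2 clone 14 cells for 48 h; signal relative to no-antibody wells, four-parameter fit.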

[2] = target: SARS-CoV-2 Omicron BA.4/5 spike pseudovirus; test: as above
Protocol: as §1

[3] = target: SARS-CoV-2 Wuhan-Hu-1 spike pseudovirus; test: as above
Protocol: as §1

[4] = target: SARS-CoV-2 Wuhan-Hu-1 spike receptor-binding domain; test: ELISA binding EC50; higher = weaker binding; ELISA of recombinant human antibody on coated antigen, from 10 µg/ml in fourfold dilutions; four-parameter fit.

B1: C5049 (protein)
chain 1: QVQLVQTGAEVKKPGASVKVSCKASGYTFSAYYIHWIRQAPGHGLEWMGWIDPKSGGTNFAQKFRGRVSMTIDTSISTAYMDLSRLRPDDTAVYYCARDSGNSWNDVDWFDPWGQGTLVTVS
chain 2: DIQMTQSPSSLSASVGDRVTIPCRASQNISRDLNWYQQRPGKAPKLLIYAASNLQSGVPSRFSGSGSGTDFTLTISNLQPEDFAIYYCQQYYSIPPYTFGQGTKLEIK
[1]
  pseudovirus neutralization IC50: 6.97 ng/mL
[2]
  pseudovirus neutralization IC50: 17.9 ng/mL
[3]
  pseudovirus neutralization IC50: 3.2 ng/mL
[4]
  ELISA binding EC50: 3.22 ng/mL

B2: C5271 (protein)
chain 1: EVQLVESGGGLVQAGGSLRLSCAASEILVSRNYMTWVRQAPGMGLEWVSVLYAGGSAFYADSVKGRFTVSRDNSKNTLFLQMNSLRDEDTAVYYCARDLSVAGALDIWGQGTMVTVSS
chain 2: DIQLTQSPSFLSASVGDRVTITCRASQGISSYLAWYQQKPGKAPKLLIYAASTLQSGVPSRFSGSGSGTEFTLTISSLQPEDFATYYCQELNSYPLTFGGGTKVEIK
[1]
  pseudovirus neutralization IC50: 1.67 ng/mL
[2]
  pseudovirus neutralization IC50: 3.39 ng/mL
[3]
  pseudovirus neutralization IC50: 3.72 ng/mL
[4]
  ELISA binding EC50: 2.86 ng/mL

B3: C5272 (protein)
chain 1: EVQLVQSGAEVKKPGESLKISCKGSGYRFANYWIGWVRQMPGKGLEWMGIIHPGDSDTRYSPSFQGLVTISADKSISTAYLQWSSLKASDTAMYYCATMLIEGYSGYELYFYFDYWGQGTLVTVSS
chain 2: SYELTQPPSVSVSPGQTARITCSGDAFPTQYAYWYQQKPGQAPVLVIYKDSERPSGIPERFSGSSSGTTVTLTISGVQAEDEADYYCQSADSRLWVFGGGTKLTVL
[1]
  pseudovirus neutralization IC50: > 1000 ng/mL
[2]
  pseudovirus neutralization IC50: > 1000 ng/mL
[3]
  pseudovirus neutralization IC50: > 1000 ng/mL
[4]
  ELISA binding EC50: 7.91 ng/mL

B4: C5273 (protein)
chain 1: QVQLVETGGGVVQPGTSLRLSCVASGFTFRHYAMHWVRQAPGKGLEWVAVTSYDESHKYYVDSVKGRFTISRDDSKNTLYLQMNSLRPEDTAVYFCAKASGGPYCAAGDCYSPRDGYDYWGQGTLVTVSS
chain 2: DIQMTQSPSSVSASVGDRVTITCRASQGINSWLAWYQQKPGKAPKLLIYDASSLESGVPSRFSGSGSGTDFTLTISGLQPEDYATYYCQQANSFPFTFGPGTKVDIK
[1]
  pseudovirus neutralization IC50: > 1000 ng/mL
[2]
  pseudovirus neutralization IC50: > 1000 ng/mL
[3]
  pseudovirus neutralization IC50: > 1000 ng/mL
[4]
  ELISA binding EC50: 4.2 ng/mL

B5: C5274 (protein)
chain 1: EVQLVESGGGLIQPGGSLRLSCAASGLTVDSNYMSWVRQAPGKGLEWVSQIYSGGSSFYADSVKGRFTISRDSSKNTLYLQMDSLRAEDTAVYYCAREGAGSGSHGFFDFWGQGTLVTVSS
chain 2: DIQLTQSPSFLSASVGDRVTITCRASQGISNYIAWYQQKPGKAPNLLIYAASTLQSGVPSRFSGSGSGTEFTLTISSLQPEDFATYYCQQLNNYPPYTFGQGTKLEIK
[1]
  pseudovirus neutralization IC50: > 1000 ng/mL
[2]
  pseudovirus neutralization IC50: > 1000 ng/mL
[3]
  pseudovirus neutralization IC50: 2.97 ng/mL
[4]
  ELISA binding EC50: 6.32 ng/mL

B6: C5275 (protein)
chain 1: EVQLVESGGSLVQPGGSLRLSCAASGFTFSGYDMHWVRQATGRGLEWVSGISPGGDPFYRGSVKGRFTISRKNAKNSLYLQMNSLRAGDTAVYYCVRSHVSPLTGALDVWGKGTTVTVSS
chain 2: SYELTQPPSVSVAPGQTARITCGGDDLGSKNVHWYQQKPGQAPVLVVYDDSDRPSGIPERFSGSNSGNTATLTISRVEAGDEADYYCQVWDSSSDPWVFGGGTTLTVL
[1]
  pseudovirus neutralization IC50: 921 ng/mL
[2]
  pseudovirus neutralization IC50: > 1000 ng/mL
[3]
  pseudovirus neutralization IC50: 682 ng/mL
[4]
  ELISA binding EC50: 5.44 ng/mL

B7: C5276 (protein)
chain 1: QVQLVQSGAEVKQPGASVKLSCRASGYTFTDYYIHWVRQAPGQGLEWMGIINPSGGSRSYAQKFQGRVTMTRDTSTSTVYMELSSLRSEDTAVYFCAREGIVVAHGRFDSWGQGTLVTVSS
chain 2: SYELTQPPSVSVAPGQTARITCGGNEIGSKSVHWYQQKPGQAPVLVVYDDSDRPSGIPERFSGSNSGNTATLTISGVEAGDEADYYCQVWDSSSDPYVFGTGTKVTVL
[1]
  pseudovirus neutralization IC50: 911 ng/mL
[2]
  pseudovirus neutralization IC50: 923 ng/mL
[3]
  pseudovirus neutralization IC50: 752 ng/mL
[4]
  ELISA binding EC50: 4.3 ng/mL

B8: C5277 (protein)
chain 1: QVQLVQSGAEVKKPGASVRLSCKASGYTFTSSYIHWVRQAPGQGLECVGIINPSGGSTTYPQKFQGRVTMTRDTSSSTVYMELSSLRSEDTAVYFCAREGCSRTTCYDYWGQGTLVTVSS
chain 2: SYELTQPPSVSVAPGQTARITCGENNIGSKSVHWYQQKPGQAPVLVVYDDSDRPSGIPERFSGSNSGNTATLTISRVEAGDEADYYCQVWDGSTDQHVVFGGGTKLTVL
[1]
  pseudovirus neutralization IC50: > 1000 ng/mL
[2]
  pseudovirus neutralization IC50: > 1000 ng/mL
[3]
  pseudovirus neutralization IC50: 951 ng/mL
[4]
  ELISA binding EC50: 5.47 ng/mL
